# Source: the supplement of paper PMC4166925
# ± gives the standard deviation of the averaged measurements. Over roughly 33,000 sequences, “E-score (dimensionless, -0.5 to 0.5)” has its median near -0.046; the highest 2% begin near 0.36. Some of the results follow.
# System: T1, SpTbr T-box DNA-binding domain (GST fusion)
# T1 sequence: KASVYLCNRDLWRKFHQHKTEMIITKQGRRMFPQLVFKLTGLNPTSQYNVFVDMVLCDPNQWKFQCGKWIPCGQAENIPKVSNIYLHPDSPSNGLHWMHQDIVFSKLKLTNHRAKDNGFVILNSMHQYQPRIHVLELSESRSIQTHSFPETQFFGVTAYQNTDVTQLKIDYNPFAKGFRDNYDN
# Assay: PBM E-score of 8-mer (E-score (dimensionless, -0.5 to 0.5)); Tbr is Tbrain of the sea star Patiria miniata (Pm) or the sea urchin Strongylocentrotus purpuratus (Sp); higher = stronger binding preference; most listed sequences are background and not binding sites
# Details: the construct has about 5 more residues each side
# Protocol: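 Universal protein-binding microarray (Agilent AMADID 016060, 60-bp probes with a 35-bp variable region) incubated with 200 nM GST-fused Strongylocentrotus purpuratus Tbr T-box DNA-binding domain (residues 362-554) in PBS pH 7.5. Scored for every ungapped 8-mer (given with its reverse complement) as E-score (range -0.5 to 0.5; >0.45 counts as bound) and Z-score of median probe intensity. Two replicate arrays (datasets 1 and 2).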
# 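Note: protein at 200 nM in PBS on universal double-stranded arrays.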
row,Sequence,PBM E-score of 8-mer
1,AAAAGGGT,-0.138 ± 0.12
2,TCGGATAA,-0.214 ± 0.025
3,TCTTATAA,-0.0607 ± 0.018
4,ATCGCCGA,0.117 ± 0.021
5,AGTCCCCA,-0.166 ± 0.027
6,CGCGTAAC,0.148 ± 0.0036
7,ATTAAAGC,-0.0839 ± 0.019
8,TCACTCCA,0.141 ± 0.017
9,CAGCGCTC,-0.00268 ± 0.0042
10,CGGTCAGA,-0.195 ± 0.057
11,CTTCGCGA,0.285 ± 0.032
12,TCAGGTAA,0.0384 ± 0.083
13,AAATGGAC,-0.118 ± 0.026
14,AGCAGTTC,-0.00386 ± 0.018
15,CGTTATAA,0.0844 ± 0.057
16,ATCAGCCA,-0.0646 ± 0.0091
17,TACGGGGA,-0.0682 ± 0.053
18,AGGCCATC,-0.285 ± 0.022
19,AGACTGTG,0.0889 ± 0.054
20,ATATCCGC,-0.00017 ± 0.072
21,CAAAAAGG,-0.00362 ± 0.0023
22,AGTTGTTC,0.00852 ± 0.024
23,CTAATGTC,0.00498 ± 0.062
24,GTACGGAA,-0.114 ± 0.015
25,ATATCGGA,-0.0485 ± 0.032

row,Sequence,PBM E-score of 8-mer
1,CAGCCTGG,-0.0718 ± 0.022
2,TACCCGTA,-0.183 ± 0.051
3,CTCCTACC,-0.133 ± 0.027
4,CTCCATTC,-0.224 ± 0.03
5,CACAGTAC,-0.0558 ± 0.017
6,AAATCATT,-0.134 ± 0.1
7,CTACGGTC,-0.269 ± 0.056
8,CCCTTTTC,-0.0676 ± 0.12
9,AGAATCCC,-0.102 ± 0.029
10,CTCGGGGC,-0.258 ± 0.027
11,CACAACAC,0.3898 ± 0.0017
12,CAGTCCGG,-0.197 ± 0.0023
13,ATTGCTCC,-0.0861 ± 0.019
14,GTATAGCA,-0.00131 ± 0.015
15,CCTTCCAA,-0.1663 ± 0.0016
16,CATAGGCG,0.151 ± 0.051
17,TACACCTA,0.377 ± 0.0086
18,GGGCAAAA,-0.132 ± 0.074
19,ACGGGCAT,-0.182 ± 0.047
20,GCTAGAGC,-0.0423 ± 0.028
21,GCAGGGAC,-0.14 ± 0.03
22,GAACGCTA,0.0577 ± 0.012
23,CCGGTGCC,-0.118 ± 0.027
24,ACCTAGCC,-0.0606 ± 0.055
25,AGGCTGTG,0.189 ± 0.021

row,Sequence,PBM E-score of 8-mer
1,ATGCCATC,-0.154 ± 0.041
2,AACCCGGA,-0.16 ± 0.062
3,ACGCGGTA,0.178 ± 0.021
4,GTTCAGTA,-0.202 ± 0.062
5,GCATATAC,-0.081 ± 0.029
6,CGTTATCC,-0.0209 ± 0.02
7,AACAGACC,-0.0548 ± 0.02
8,CAACTCTG,0.225 ± 0.013
9,CTCGGATC,-0.178 ± 0.045
10,CCTGACCG,-0.0601 ± 0.0013
11,AAAGATTT,-0.0898 ± 0.039
12,CATTCGCC,-0.147 ± 0.039
13,CCCAAAAA,-0.159 ± 0.064
14,TAATCGTA,-0.048 ± 0.022
15,TCCTGAGA,-0.253 ± 0.088
16,AGAGGATC,-0.392 ± 0.012
17,AAGTAATA,-0.27 ± 0.046
18,CCAAGAAC,-0.0859 ± 0.048
19,AGTTCAAT,-0.0516 ± 0.0057
20,CCGCCTAC,-0.182 ± 0.053
21,ACCTAATG,0.0313 ± 0.041
22,GCACACAC,0.294 ± 0.035
23,GTCCACAA,0.153 ± 0.039
24,TTAGCTAA,-0.00265 ± 0.075
25,ACTACAAA,-0.0142 ± 0.015

row,Sequence,PBM E-score of 8-mer
1,ATTGCGTG,0.084 ± 0.026
2,ACGATCCG,0.0313 ± 0.051
3,ACCACAAG,0.0963 ± 0.0014
4,CGGTCCGC,0.0643 ± 0.093
5,ATGTCGAG,0.0154 ± 0.069
6,GGTCGAGA,-0.184 ± 0.033
7,ATTAGATC,-0.194 ± 0.071
8,GCAAGCTA,-0.0994 ± 0.048
9,CACCTACA,0.371 ± 0.014
10,AACTGACT,-0.141 ± 0.043
11,GCGTACAC,-0.104 ± 0.027
12,ATCGGATG,-0.0522 ± 0.041
13,CTTGCAGC,0.0211 ± 0.097
14,AACGTAAG,-0.0124 ± 0.092
15,GATTCTGA,-0.173 ± 0.037
16,ATCTTTAC,-0.114 ± 0.069
17,CAATACTG,-0.127 ± 0.0078
18,TTGAAAAA,-0.0577 ± 0.027
19,AAAGTCTT,-0.152 ± 0.062
20,ACTCTACT,0.00872 ± 0.0077
21,ACGACGAA,-0.00509 ± 0.037
22,AGAGAAGA,-0.16 ± 0.011
23,CCCCCAGA,-0.224 ± 0.0064
24,ATTGCGTC,-0.174 ± 0.089
25,CACCCAAC,0.257 ± 0.028

row,Sequence,PBM E-score of 8-mer
1,AACTTATG,-0.262 ± 0.033
2,CGTAATTC,-0.172 ± 0.019
3,ATAAGCTA,-0.1 ± 0.014
4,CGCCAGTC,0.104 ± 0.048
5,ACTTGCAG,0.147 ± 0.021
6,CTTAACCC,-0.000625 ± 0.011
7,ACCTACTC,-0.00154 ± 0.02
8,AGCCGGCC,-0.138 ± 0.033
9,AAGTCAGA,-0.152 ± 0.044
10,CACGGTCA,-0.0942 ± 0.082
11,AAGCTTGA,-0.11 ± 0.042
12,AGTATGTC,0.0771 ± 0.044
13,GCCCAAAC,-0.357 ± 0.018
14,GAAATATC,0.0425 ± 0.043
15,AGGTAACT,-0.165 ± 0.028
16,CCTCAAGA,-0.0881 ± 0.046
17,AAAGAGAA,-0.198 ± 0.041
18,CCCTTTCC,-0.2 ± 0.064
19,ACCAACAA,0.0687 ± 0.00095
20,TCAACGAA,0.0106 ± 0.045
21,ATGGCCAG,-0.362 ± 0.012
22,AGCGAAAA,-0.0276 ± 0.011
23,GTATGCCA,-0.0832 ± 0.062
24,ACTTTCCC,-0.0292 ± 0.0071
25,CTTGTTTA,-0.114 ± 0.071

row,Sequence,PBM E-score of 8-mer
1,AACGCGGT,-0.0462 ± 0.038
2,CAATCTTA,-0.0254 ± 0.06
3,ACCTTGCA,-0.0177 ± 0.044
4,CCGTGATC,0.15 ± 0.011
5,ACCAGCGG,0.0935 ± 0.055
6,ACATGGCT,-0.128 ± 0.04
7,ATGGATTA,-0.151 ± 0.0019
8,CCTCATAA,-0.0692 ± 0.021
9,AGTTGGTG,0.125 ± 0.031
10,GCGGCGAC,0.141 ± 0.006
11,ACAACCAC,0.0825 ± 0.069
12,CCACCGGA,-0.22 ± 0.017
13,ATCATTGC,-0.206 ± 0.041
14,AGACAAGC,-0.0247 ± 0.089
15,CTTCGGAC,-0.0546 ± 0.019
16,TGATACCA,-0.0856 ± 0.013
17,GAGAGATC,-0.00216 ± 0.088
18,AATTGGGT,0.0374 ± 0.037
19,TCGATGCA,-0.245 ± 0.018
20,AAATCGAC,0.0255 ± 0.034
21,AAACGCTC,-0.234 ± 0.14
22,CGTAGCAC,0.197 ± 0.0064
23,ATCGCCCA,-0.00832 ± 0.071
24,CTGACGTC,-0.106 ± 0.12
25,AGCCGGCG,0.0102 ± 0.074

row,Sequence,PBM E-score of 8-mer
1,ACACGACA,0.197 ± 0.02
2,TCCGTAAA,0.048 ± 0.012
3,GTAGAGCA,-0.195 ± 0.016
4,CCCTCGGA,-0.302 ± 0.013
5,CAGGCCGA,-0.0618 ± 0.018
6,ACAACGAT,-0.00065 ± 0.016
7,CTTCTCAC,0.401 ± 0.011
8,CGACCCAG,-0.116 ± 0.039
9,TCTGACCA,-0.263 ± 0.012
10,CCTCGCAC,0.396 ± 0.032
11,ACTCTGGG,-0.134 ± 0.047
12,AGCGCTCG,0.101 ± 0.14
13,CAAGCTGA,-0.133 ± 0.028
14,CTTCCTTA,-0.0224 ± 0.0045
15,CCCTGTGC,-0.0572 ± 0.048
16,GATGTTGA,0.0152 ± 0.026
17,GGGGTTTA,-0.00105 ± 0.0085
18,ACCCTACT,0.0703 ± 0.013
19,AAGGGGCA,-0.297 ± 0.042
20,ATTATGGA,-0.129 ± 0.051
21,AAATGGGT,0.065 ± 0.014
22,CTGATCTC,-0.00624 ± 0.016
23,CAAATCTC,0.106 ± 0.047
24,GCACAACC,-0.0068 ± 0.068
25,CAGTTGCC,0.111 ± 0.01

row,Sequence,PBM E-score of 8-mer
1,GAAACGCC,0.11 ± 0.026
2,AGTTTCGG,-0.357 ± 0.028
3,TGCAGCAA,-0.15 ± 0.046
4,AGACAGGA,-0.159 ± 0.04
5,CCGGGGGA,-0.225 ± 0.036
6,GAGGCATC,-0.224 ± 0.072
7,ATCGCTGC,0.0231 ± 0.034
8,ATGCAATG,-0.202 ± 0.0094
9,CATTATAC,0.119 ± 0.022
10,CTCATTCA,0.019 ± 0.071
11,ATGAGCCC,-0.216 ± 0.036
12,GCGTTGGA,0.107 ± 0.067
13,CCAGCCTC,-0.228 ± 0.12
14,CTTAAGAA,-0.0507 ± 0.029
15,AAACGGAC,-0.158 ± 0.0066
16,GAGCCTGC,-0.0257 ± 0.039
17,TAAAGCCA,-0.263 ± 0.037
18,TCATGTCA,-0.00108 ± 0.05
19,CCAAGTCC,-0.0836 ± 0.022
20,AAGGCGCC,0.224 ± 0.011
21,CTGGGATC,-0.126 ± 0.032
22,GCCCGGAA,-0.167 ± 0.014
23,CAGAATAG,-0.224 ± 0.025
24,ACGTCCTG,0.0542 ± 0.055
25,CTAACATC,-0.0989 ± 0.068

row,Sequence,PBM E-score of 8-mer
1,ACAAGGCT,0.0374 ± 0.071
2,CCACCGCG,0.0782 ± 0.0015
3,TACGTCGA,-0.0607 ± 0.029
4,TACTCCGA,-0.0262 ± 0.0085
5,CCAGTGAG,-0.224 ± 0.14
6,CCTGTCCA,0.0557 ± 0.043
7,AATCGTCC,-0.238 ± 0.015
8,CGATGCCC,-0.102 ± 0.011
9,ATTGGAGA,-0.278 ± 0.019
10,AATTGGAA,0.0127 ± 0.0018
11,CGGTGCGA,0.339 ± 0.0046
12,ACAACTCA,0.216 ± 0.036
13,CCAGACGG,-0.0627 ± 0.096
14,AATTCGAT,-0.0799 ± 0.002
15,GTACTCAA,-0.114 ± 0.041
16,ACGTGGGA,0.203 ± 0.026
17,AGGCTATC,-0.0294 ± 0.012
18,AGAGGTTA,-0.141 ± 0.0069
19,AATCACCG,0.0191 ± 0.03
